# According to PMC4336329 (PLoS ONE, 2015):
# Out of some 310,000 compounds screened, about 14,000 (4.5%) showed an effect of 50% or more. The effect is printed as a negative number. This is one part of the list.
# Target: human ether-à-go-go-related gene (hERG) potassium channel (human, UniProt Q12809)
# Assay: primary screen, population patch clamp on CHO cells stably expressing hERG
# 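Also: peak tail current of the secondary pulse compared with the same well before compound.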
# Chain of human ether-à-go-go-related gene (hERG) potassium channel (Q12809 whole entry, looked up): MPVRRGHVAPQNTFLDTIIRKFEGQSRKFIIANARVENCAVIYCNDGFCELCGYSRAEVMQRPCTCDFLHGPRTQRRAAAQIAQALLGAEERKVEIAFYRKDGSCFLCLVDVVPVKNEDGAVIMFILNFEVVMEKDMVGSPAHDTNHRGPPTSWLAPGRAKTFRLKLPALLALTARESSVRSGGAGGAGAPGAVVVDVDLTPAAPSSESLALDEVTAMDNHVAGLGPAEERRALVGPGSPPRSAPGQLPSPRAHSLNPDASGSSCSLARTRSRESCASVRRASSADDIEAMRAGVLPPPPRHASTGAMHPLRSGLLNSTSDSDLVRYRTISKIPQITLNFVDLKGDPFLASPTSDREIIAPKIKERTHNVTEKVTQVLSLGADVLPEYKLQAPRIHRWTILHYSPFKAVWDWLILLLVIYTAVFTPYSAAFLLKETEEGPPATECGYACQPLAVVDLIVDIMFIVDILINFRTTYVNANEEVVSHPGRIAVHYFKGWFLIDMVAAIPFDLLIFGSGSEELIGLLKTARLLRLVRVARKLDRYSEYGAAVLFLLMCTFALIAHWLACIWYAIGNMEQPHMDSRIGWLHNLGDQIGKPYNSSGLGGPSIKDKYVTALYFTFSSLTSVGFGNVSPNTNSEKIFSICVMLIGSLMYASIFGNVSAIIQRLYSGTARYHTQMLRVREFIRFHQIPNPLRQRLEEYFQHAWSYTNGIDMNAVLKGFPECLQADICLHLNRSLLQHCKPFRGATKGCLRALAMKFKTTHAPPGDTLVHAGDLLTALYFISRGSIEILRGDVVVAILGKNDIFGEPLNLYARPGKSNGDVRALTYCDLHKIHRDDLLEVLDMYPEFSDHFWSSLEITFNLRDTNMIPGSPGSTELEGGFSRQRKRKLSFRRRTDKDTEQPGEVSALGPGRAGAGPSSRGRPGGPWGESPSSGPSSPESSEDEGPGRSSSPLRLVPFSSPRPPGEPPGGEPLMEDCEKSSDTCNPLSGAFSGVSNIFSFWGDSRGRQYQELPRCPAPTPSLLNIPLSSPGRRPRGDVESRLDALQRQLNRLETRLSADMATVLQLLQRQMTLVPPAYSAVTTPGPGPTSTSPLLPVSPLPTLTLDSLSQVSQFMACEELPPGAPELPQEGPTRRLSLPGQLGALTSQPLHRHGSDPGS
row,Structure (SMILES),"hERG current change (%, negative = inhibition) at 10uM"
1,CCOc1ccccc1N1CCN(C(=O)Nc2ccc(F)c(Cl)c2)CC1,-16.6%
2,CCc1nn(C(C)C(=O)NCCc2ccccc2)c(=O)c2cc3occc3n12 (centres unmarked),-31.1%
3,O=C(NCCc1ccc(Cl)cc1)c1ccc(S(=O)(=O)N2CCCC2)cc1,0.599%
4,CC(C)(C)C(=O)Cn1nc(Cl)nc1Cl,7.68%
5,COc1ccc(-c2cc(C3CCN(C(=O)OC(C)(C)C)CC3)[nH]n2)cc1,-26.4%
6,O=C(Cn1cnc([N+](=O)[O-])n1)N/N=C/c1cc(Cl)ccc1O,3.28%
7,C#CCOCCOCCOCCNc1nc(N2CCN(C(=O)[C@H](CCCCN)n3cc([C@@H](N)CO)nn3)CC2)nc(N2CCN(C(=O)[C@H](Cc3ccc(O)cc3)n3cc([C@@H](N)CC(C)C)nn3)CC2)n1.Cl,8.82%
8,COc1cc(C(=O)NCC(C)C)cc(OC)c1OC,6.67%
9,COc1ccc(N2CCN(c3oc(COc4ccc(Cl)cc4)nc3C#N)CC2)cc1,-2.55%
10,COc1ccc(CCN2C(=O)C3C4CCC(C4=C(C)C)C3C2=O)cc1OC (centres unmarked),18.1%
11,COc1ccc(/C=C(\NC(=O)c2ccc(C)cc2)C(=O)NCC2CCCO2)cc1 (centres unmarked),-8.44%
12,COc1cc(Cl)ccc1OCc1cc(C(=O)N2C[C@@H]3CCC[C@H]2C3)no1,-26.8%
13,COc1ccc(OC)c(C2=NS(=O)(=O)N(C)C(C(=O)Nc3cccc(C(C)=O)c3)=C2)c1,-2.21%
14,CCOC(=O)CC(=O)CSc1ccc2nnc(-c3ccc(F)cc3)n2n1,-23.4%
15,CCOC(=O)/C=C/[C@H]1CCc2cccc(C)c2O1,-14.8%
16,Cc1cc(C)n(S(=O)(=O)c2ccccc2[N+](=O)[O-])n1,14.3%
17,Cc1nn(-c2ccccc2)c2nc(N)c(C#N)c(-c3ccc(O)c(O)c3)c12,13%
18,CCOC(=O)c1ccc(NC(=O)C2C3CCC(C3)C2C(=O)O)cc1 (centres unmarked),15.4%
19,CCc1cccc(OCC(=O)Nc2ccc(S(=O)(=O)N3CCCC3)cc2)c1,2.4%
20,CN(CC(=O)NC1CCCCCC1)S(=O)(=O)c1ccc2c(c1)n(C)c(=O)c(=O)n2C,11.6%
21,C=C(C)CSc1nnc2n(C)c(=O)c3c4c(sc3n12)CCC4,-21.6%
22,COCCn1c(C)cc(C(=O)COC(=O)c2ccc(-n3nc(C)cc3C)cc2)c1C,2.16%

row,Structure (SMILES),"hERG current change (%, negative = inhibition) at 10uM"
1,COc1ccc(S(=O)(=O)CC(=O)Nc2ccccc2Cl)cc1,13.3%
2,CCCCc1nnc(NC(=O)C23CC4CC(CC(NC(C)=O)(C4)C2)C3)s1,-1.81%
3,CCOC(=O)C(CCCOc1ccccc1C)C(=O)OCC,6.43%
4,Cc1cc(OCC(=O)NCCO)ccc1Cl,6.66%
5,Cc1c(C(=O)NCc2ccco2)sc2nc(-c3ccccc3)cn12,-30.8%
6,N#CC(C#N)=C1C(=O)N(CCN2CCCCC2)c2ccccc21,-0.262%
7,CCc1ccccc1N=C1S/C(=C/c2ccccc2OCC(=O)N2CCOCC2)C(=O)N1C,-17.6%
8,O=c1c2ccccc2c(=O)n(-c2ccccc2)n1CCCCBr,-63.5%
9,COc1ccccc1C1N(c2ccc(Cl)cc2)C(=O)C2CCCN21 (centres unmarked),11.7%
10,Cl.N=c1n(Cc2ccc(Cl)cc2)c2ccccc2n1CC(O)COc1ccccc1 (centres unmarked),-68.2%
11,Cc1c(Cl)cccc1NC(=O)CCC(=O)N/N=C/c1ccco1,18.9%
12,CS(=O)(=O)NN1C(=O)c2ccccc2NC1c1c[nH]c2ccccc12 (centres unmarked),6.65%
13,O=C(O)C1CCC(=O)N1C1CCCC1 (centres unmarked),10.9%
14,CCOC(=O)CCC(NC(=O)CCC(=O)NC(CCC(=O)OCC)C(=O)OCC)C(=O)OCC (centres unmarked),25.1%
15,N#CC(C(=O)NC1CC1)c1nc2ccccc2nc1N1CCCC1 (centres unmarked),-7.63%
16,COc1ccc(CCn2c(=N)c(S(=O)(=O)c3ccc(Cl)cc3)cc3c(=O)n4ccccc4nc32)cc1,20.5%
17,CC1CCCCN1C(=O)c1ccccc1OC1CCN(S(C)(=O)=O)CC1 (centres unmarked),5.73%
18,COc1ccc(CNC(=O)CSc2ccc(Br)cc2)cc1OC,-63.1%
19,COc1ccccc1NC(=O)C1CC(=O)OC1c1ccccc1 (centres unmarked),-4.82%
20,COc1cc(OC)cc(C2(C#N)CCN(C)CC2)c1,-9.94%
21,Cc1onc(-c2ccccc2)c1C(=O)OCC(=O)N(CC(C)C)c1c(N)n(Cc2ccccc2)c(=O)[nH]c1=O,5.16%
22,CCCCNC(=O)c1c(N)n(/N=C/c2ccccn2)c2nc3ccccc3nc12,8.1%

row,Structure (SMILES),"hERG current change (%, negative = inhibition) at 10uM"
1,O=C(c1ccc(F)cc1)c1ccc(N2CCCC2)cc1,-8.35%
2,CC(C)C(C(=O)Nc1ccccc1)N1C(=O)c2ccccc2C1=O (centres unmarked),-3.34%
3,Cc1ccc(NC2CCCCC2NS(=O)(=O)c2ccc(Cl)cc2)cc1 (centres unmarked),5.07%
4,CN(Cc1ccon1)C(=O)CCc1nnc(Cc2ccc(-c3ccccc3)cc2)o1,-20%
5,COc1cc2c(cc1OC)[C@@]13CCN4CC5=CCO[C@H]6CC(=O)N2[C@H]1[C@H]6[C@H]5C[C@H]43,-8.03%
6,CCN(CC)c1ccc(NC(=O)CN2CCN(c3ccccn3)CC2)cc1,-2.86%
7,COc1ccc(NC(=O)c2ccco2)c2ccccc12,-2.18%
8,O=C(Cc1n[nH]c(=O)[nH]c1=O)N/N=C/c1ccccc1O,8.68%
9,O=C(COC(=O)c1cc(S(=O)(=O)N2CCCCC2)ccc1N1CCOCC1)NC1CCS(=O)(=O)C1 (centres unmarked),4.31%
10,Cc1ccccc1CN1CCC(CNC(=O)C2CCCN(c3ncnc4c3nc3n4CCCCC3)C2)CC1 (centres unmarked),-7.3%
11,COc1ccc(C(=O)NCC(=O)OCC(=O)N2CCN(S(=O)(=O)c3ccccc3)CC2)cc1,2.35%
12,NCC(CC(=O)O)C1CCCCC1 (centres unmarked),5.24%
13,COc1ccccc1OCC(=O)NC1CC(C)(C)NC(C)(C)C1,4.85%
14,Cc1c(C(=O)Nc2ccccc2)cnn1-c1ccccc1,-3.03%
15,Cc1cc(C)c(S(=O)(=O)n2nc(C)c(Br)c2C)c(C)c1,2.14%
16,O=C(N/N=C/c1coc2ccccc2c1=O)c1ccccc1,10.6%
17,O=C1COc2ccc(C(=O)COc3ccc([N+](=O)[O-])cc3)cc2N1,8.2%
18,CN(C)C(CNC(=O)c1ccc([N+](=O)[O-])cc1Cl)c1ccco1 (centres unmarked),8.69%
19,CN(C)S(=O)(=O)c1cccc(NC(=O)CN2C(=O)NC(Cc3c[nH]c4ccccc34)C2=O)c1 (centres unmarked),18.4%
20,CC(C)c1ccc(NC(=O)CN2CCN(c3ccccn3)CC2)cc1,-2.34%
21,COc1ccccc1Cn1c(C)nc2ccccc21,2.25%
22,O=C(COc1ccc(Br)cc1CO)Nc1ccccc1,-10.4%

row,Structure (SMILES),"hERG current change (%, negative = inhibition) at 10uM"
1,NC(CSCc1ccccc1Cl)C(=O)O (centres unmarked),0.173%
2,COc1ccc(C(=O)C2CCCN(CCO)C2)c(C)c1 (centres unmarked),4.23%
3,CC1Cc2ccccc2N1S(=O)(=O)c1cnc(Cl)c(Cl)c1 (centres unmarked),22.6%
4,CSc1nc(Sc2ccccc2Cl)c2ccccc2n1,16.6%
5,CC(C)(C)C(=O)CN1C(=O)NC2(CCCc3ccccc32)C1=O (centres unmarked),14%
6,O=C1N[C@@H](Cc2ccccc2)C(=O)N2[C@H]1C[C@]1([C@]34C[C@H]5C(=O)N[C@@H](Cc6ccccc6)C(=O)N5[C@H]3N(S(=O)(=O)c3ccccc3)c3ccccc34)c3ccccc3N(S(=O)(=O)c3ccccc3)[C@H]21,9.44%
7,COc1ccccc1NC(=O)CCCN1C(=O)C(c2ccccc2)Oc2cccnc21 (centres unmarked),-18.7%
8,CC(=O)Nc1ccc(NC(=O)C2C3CCC(C3)C2C(=O)O)cc1 (centres unmarked),15.1%
9,COc1ccccc1CNCc1cccc(Oc2ccccc2)c1,-15.4%
10,CC(C)(C)c1cc(Cc2ccccc2)[nH]n1,-5.18%
11,COc1ccc(/C=C(\NC(=O)c2ccc(C)cc2)C(=O)NCCN2CCOCC2)cc1,-64.6%
12,CCOc1cccc(-c2c(C(=O)N/N=C(\C)c3cccs3)nnn2-c2nonc2N)c1,11.7%
13,CCOc1ccc(S(=O)(=O)N2CCCC(C(=O)NCc3cccnc3)C2)cc1C (centres unmarked),-7.47%
14,CCOc1ccc(NS(=O)(=O)c2ccc(C(=O)NCCCN3CCCC3=O)cc2)cc1,7.23%
15,CC[N+](CC)(CC)CCCOC(=O)C(O)(c1ccccc1)C1CCCCC1.[Cl-] (centres unmarked),1.36%
16,CCCC(=O)Nc1c(C)nn(C(=O)CCC)c1C,7.41%
17,CCOC(=O)c1c(C)[nH]c(C)c1S(=O)(=O)NC(C)Cc1ccco1 (centres unmarked),5.27%
18,Cn1ncc(C#N)c1NC(=O)c1cc(-c2ccccc2Cl)on1,6.76%
19,Cc1ccc(S(=O)(=O)Nc2cc3c4c(c2)CCN4C(=O)CC3)cc1,-10%
20,CC(C)(C)OC(=O)NCCCC[C@H](NC(=O)c1[nH]cnc1C(=O)N[C@@H](Cc1ccccc1)C(=O)OC(C)(C)C)C(=O)OC(C)(C)C,1.54%
